# The other results are listed elsewhere or left out.
# Key:
# Test in all cases: glycan array binding signal (z-score within array); higher = stronger binding
# Settings in all cases: glycan notation: IUPAC condensed, linker removed
# [1] = molecular target: Gal(b1-3)GlcNAc(b1-3)Gal(b1-4)Glc
# How it was run: (§1)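 The Consortium for Functional Glycomics database supplied 3228 glycan arrays, of which those lacking an available protein sequence were dropped. The binding signal, a within-array Z-score, was averaged across arrays of the same protein sequence and across linkers. Negative scores can be read as non-binding.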
# [2] = molecular target: Gal(b1-3)GlcNAc(b1-3)Gal(b1-4)GlcNAc
# How it was run: as §1
# [3] = molecular target: Gal(b1-3)GlcNAc(b1-3)Gal(b1-4)GlcNAc(b1-2)Man(a1-3)[Gal(b1-3)GlcNAc(b1-3)Gal(b1-4)GlcNAc(b1-2)Man(a1-6)]Man(b1-4)GlcNAc(b1-4)GlcNAc
# How it was run: as §1
# [4] = molecular target: Gal(b1-3)GlcNAc(b1-3)Gal(b1-4)GlcNAc(b1-2)[Gal(b1-3)GlcNAc(b1-3)Gal(b1-4)GlcNAc(b1-6)]Man(a1-6)[Gal(b1-3)GlcNAc(b1-3)Gal(b1-4)GlcNAc(b1-2)Man(a1-3)]Man(b1-4)GlcNAc(b1-4)[Fuc(a1-6)]GlcNAc
# How it was run: as §1
# [5] = molecular target: Gal(b1-3)GlcNAc(b1-3)Gal(b1-4)GlcNAc(b1-3)Gal(b1-4)GlcNAc(b1-2)[Gal(b1-3)GlcNAc(b1-3)Gal(b1-4)GlcNAc(b1-3)Gal(b1-4)GlcNAc(b1-6)]Man(a1-6)[Gal(b1-3)GlcNAc(b1-3)Gal(b1-4)GlcNAc(b1-3)Gal(b1-4)GlcNAc(b1-2)Man(a1-3)]Man(b1-4)GlcNAc(b1-4)[Fuc(a1-6)]GlcNAc
# How it was run: as §1
# [6] = molecular target: Gal(b1-3)GlcNAc(b1-3)Gal(b1-4)GlcNAc(b1-6)[Gal(b1-3)GlcNAc(b1-3)]Gal(b1-4)Glc
# How it was run: as §1
# [7] = molecular target: Gal(b1-3)GlcNAc(b1-3)Gal(b1-4)[Fuc(a1-3)]GlcNAc
# How it was run: as §1
# [8] = molecular target: Gal(b1-3)GlcNAc(b1-3)Gal(b1-4)[Fuc(a1-3)]GlcNAc(b1-6)[Gal(b1-3)GlcNAc(b1-3)]Gal(b1-4)Glc
# How it was run: as §1
# [9] = molecular target: Gal(b1-3)GlcNAc(b1-3)GalNAc
# How it was run: as §1
# [10] = molecular target: Gal(b1-3)GlcNAc(b1-6)Gal(b1-4)GlcNAc
# How it was run: as §1
# [11] = molecular target: Gal(b1-3)GlcNAc(b1-6)GalNAc
# How it was run: as §1
# [12] = molecular target: Gal(b1-3)GlcNAc(b1-6)[Gal(b1-3)]GalNAc
# How it was run: as §1
# Gal(b1-3)GlcNAc6S = molecular target: Gal(b1-3)GlcNAc6S
# How it was run: as §1
# [13] = molecular target: Gal(b1-3)[Fuc(a1-4)]GlcNAc
# How it was run: as §1
# [14] = molecular target: Gal(b1-3)[Fuc(a1-4)]GlcNAc(b1-2)Man
# How it was run: as §1
# [15] = molecular target: Gal(b1-3)[Fuc(a1-4)]GlcNAc(b1-2)Man(a1-3)[Gal(b1-3)[Fuc(a1-4)]GlcNAc(b1-2)Man(a1-6)]Man(b1-4)GlcNAc(b1-4)[Fuc(a1-6)]GlcNAc
# How it was run: as §1
# [16] = molecular target: Gal(b1-3)[Fuc(a1-4)]GlcNAc(b1-3)Gal(b1-3)[Fuc(a1-4)]GlcNAc
# How it was run: as §1
# [17] = molecular target: Gal(b1-3)[Fuc(a1-4)]GlcNAc(b1-3)Gal(b1-4)GlcNAc
# How it was run: as §1
# [18] = molecular target: Gal(b1-3)[Fuc(a1-4)]GlcNAc(b1-3)Gal(b1-4)[Fuc(a1-3)]GlcNAc
# How it was run: as §1
# [19] = molecular target: Gal(b1-3)[Fuc(a1-4)]GlcNAc(b1-6)GalNAc
# How it was run: as §1
# [20] = molecular target: Gal(b1-3)[GlcNAc(b1-6)]GalNAc
# How it was run: as §1
# [21] = molecular target: Gal(b1-3)[GlcNAc(b1-6)]GlcNAc
# How it was run: as §1
# [22] = molecular target: Gal(b1-3)[Neu5Ac(a2-6)]GalNAc
# How it was run: as §1
# [23] = molecular target: Gal(b1-3)[Neu5Ac(a2-6)]GlcNAc
# How it was run: as §1
# [24] = molecular target: Gal(b1-3)[Neu5Ac(a2-6)]GlcNAc(a1-4)Gal(b1-4)Glc
# How it was run: as §1
# [25] = molecular target: Gal(b1-3)[Neu5Ac(a2-6)]GlcNAc(b1-4)Gal(b1-4)Glc
# How it was run: as §1
# [26] = molecular target: Gal(b1-3)[Neu5Ac(b2-6)]GalNAc
# How it was run: as §1
# [27] = molecular target: Gal(b1-3)[Neu5Ac(b2-6)]GlcNAc
# How it was run: as §1
# Gal(b1-4)Gal = molecular target: Gal(b1-4)Gal
# How it was run: as §1
# [28] = molecular target: Gal(b1-4)GalNAc(a1-3)[Fuc(a1-2)]Gal(b1-4)GlcNAc
# How it was run: as §1
# [29] = molecular target: Gal(b1-4)GalNAc(b1-3)[Fuc(a1-2)]Gal(b1-4)GlcNAc
# How it was run: as §1
# Gal(b1-4)Glc = molecular target: Gal(b1-4)Glc
# How it was run: as §1
# Gal(b1-4)Glc6S = molecular target: Gal(b1-4)Glc6S
# How it was run: as §1
# Gal(b1-4)GlcNAc = molecular target: Gal(b1-4)GlcNAc
# How it was run: as §1
# [30] = molecular target: Gal(b1-4)GlcNAc(a1-6)Gal(b1-4)GlcNAc
# How it was run: as §1
# Gal(b1-4)GlcNAc(b1-2)Man = molecular target: Gal(b1-4)GlcNAc(b1-2)Man
# How it was run: as §1
# [31] = molecular target: Gal(b1-4)GlcNAc(b1-2)Man(a1-3)Man(b1-4)GlcNAc(b1-4)GlcNAc
# How it was run: as §1
# [32] = molecular target: Gal(b1-4)GlcNAc(b1-2)Man(a1-3)[Gal(b1-4)GlcNAc(b1-2)Man(a1-6)]Man(b1-4)GlcNAc(b1-4)GlcNAc
# How it was run: as §1
binder,measurement,setting,value
"Epa7 (Candida glabrata), Q6DTM6_CANGB (protein) MGSSHHHHHHSSGLVPRGSHMKDDYSSFLSNNNLGWTDPTEFPLGCSPNVTTPKNGLSMELYSYDLRKNGSYPCWDAAYLDPNYPRTGYKSHRLLAKVDGVTGNINFYYHATKGCTPEIDHLPASYNYPKPLTMTNFTMLLYGYFKPKVTGYHTFTISADDLLFVNFGAGNAFDCCKRESSADDFGNYQAYAVWGSQTAKDDLTVHLDAGLYYPIRIFFNNREYDAELSLTLKTESDSNPVIDFSDYFYSFDDTKDGCPGLVSYDTS",glycan array binding signal (z-score),[1],-0.198
same,glycan array binding signal (z-score),[2],-0.192
same,glycan array binding signal (z-score),[3],-0.16
same,glycan array binding signal (z-score),[4],-0.019
same,glycan array binding signal (z-score),[5],0.026
same,glycan array binding signal (z-score),[6],0.171
same,glycan array binding signal (z-score),[7],-0.19
same,glycan array binding signal (z-score),[8],-0.105
same,glycan array binding signal (z-score),[9],-0.223
same,glycan array binding signal (z-score),[10],0.085
same,glycan array binding signal (z-score),[11],-0.209
same,glycan array binding signal (z-score),[12],1.78
same,glycan array binding signal (z-score),Gal(b1-3)GlcNAc6S,-0.079
same,glycan array binding signal (z-score),[13],-0.248
same,glycan array binding signal (z-score),[14],-0.22
same,glycan array binding signal (z-score),[15],-0.144
same,glycan array binding signal (z-score),[16],-0.245
same,glycan array binding signal (z-score),[17],-0.264
same,glycan array binding signal (z-score),[18],-0.252
same,glycan array binding signal (z-score),[19],-0.168
same,glycan array binding signal (z-score),[20],1.21
same,glycan array binding signal (z-score),[21],0.08
same,glycan array binding signal (z-score),[22],4.18
same,glycan array binding signal (z-score),[23],2.5
same,glycan array binding signal (z-score),[24],-0.269
same,glycan array binding signal (z-score),[25],-0.198
same,glycan array binding signal (z-score),[26],2.26
same,glycan array binding signal (z-score),[27],-0.19
same,glycan array binding signal (z-score),Gal(b1-4)Gal,-0.199
same,glycan array binding signal (z-score),[28],0.016
same,glycan array binding signal (z-score),[29],0.755
same,glycan array binding signal (z-score),Gal(b1-4)Glc,-0.199
same,glycan array binding signal (z-score),Gal(b1-4)Glc6S,0.01
same,glycan array binding signal (z-score),Gal(b1-4)GlcNAc,-0.07
same,glycan array binding signal (z-score),[30],0.542
same,glycan array binding signal (z-score),Gal(b1-4)GlcNAc(b1-2)Man,-0.105
same,glycan array binding signal (z-score),[31],-0.185
same,glycan array binding signal (z-score),[32],1.78

# From the supplement of paper PMC8728848
